About 2,200 (0.71%) of roughly 310,000 compounds showed an effect of 50% or more. Effects have a minus sign here. The list shows a part of the results. Where a SMILES comes first, the peptide text is derived from it.

human ether-à-go-go-related gene (hERG) potassium channel, sequence (Q12809 whole entry, looked up): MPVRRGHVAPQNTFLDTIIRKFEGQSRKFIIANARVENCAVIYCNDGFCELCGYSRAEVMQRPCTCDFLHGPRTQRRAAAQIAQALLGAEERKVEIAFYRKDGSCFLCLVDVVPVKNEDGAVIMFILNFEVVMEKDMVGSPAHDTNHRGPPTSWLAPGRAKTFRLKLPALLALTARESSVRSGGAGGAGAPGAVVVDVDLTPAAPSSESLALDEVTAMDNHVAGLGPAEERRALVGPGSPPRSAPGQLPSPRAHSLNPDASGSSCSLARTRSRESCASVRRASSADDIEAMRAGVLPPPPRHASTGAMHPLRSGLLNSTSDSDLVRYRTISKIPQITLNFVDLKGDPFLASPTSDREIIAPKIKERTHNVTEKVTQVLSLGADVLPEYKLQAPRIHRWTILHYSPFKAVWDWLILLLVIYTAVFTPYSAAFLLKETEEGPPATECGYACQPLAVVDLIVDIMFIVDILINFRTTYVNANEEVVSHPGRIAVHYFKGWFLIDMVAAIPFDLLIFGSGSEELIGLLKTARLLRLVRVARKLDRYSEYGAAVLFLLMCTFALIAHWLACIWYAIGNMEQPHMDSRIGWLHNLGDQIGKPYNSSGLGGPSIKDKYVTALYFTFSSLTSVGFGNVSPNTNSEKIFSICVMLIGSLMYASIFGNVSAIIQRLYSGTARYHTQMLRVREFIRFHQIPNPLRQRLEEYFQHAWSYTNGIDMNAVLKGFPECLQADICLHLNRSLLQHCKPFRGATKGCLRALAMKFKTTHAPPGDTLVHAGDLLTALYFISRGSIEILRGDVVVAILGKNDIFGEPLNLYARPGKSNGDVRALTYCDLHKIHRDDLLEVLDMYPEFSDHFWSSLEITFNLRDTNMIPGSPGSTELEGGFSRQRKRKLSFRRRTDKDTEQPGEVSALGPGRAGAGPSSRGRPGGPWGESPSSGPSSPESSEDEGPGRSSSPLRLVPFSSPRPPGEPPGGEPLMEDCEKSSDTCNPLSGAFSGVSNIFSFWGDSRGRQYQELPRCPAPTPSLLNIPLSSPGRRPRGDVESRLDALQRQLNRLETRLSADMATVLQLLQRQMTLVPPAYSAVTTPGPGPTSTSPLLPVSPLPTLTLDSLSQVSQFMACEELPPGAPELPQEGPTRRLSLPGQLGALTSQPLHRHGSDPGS

The experiment concerns the target human ether-à-go-go-related gene (hERG) potassium channel (human, UniProt Q12809). Put plainly: primary screen, population patch clamp on CHO cells stably expressing hERG.
For `Cc1cc(C)cc(N(C(C)C(=O)N2CCCC2)S(C)(=O)=O)c1` (stereo not shown), the “hERG current change (%, negative = inhibition) at 1uM” value was determined as 5.39%.
With `CCOC(=O)Cn1c(=O)oc2cc(S(=O)(=O)NCCC(C)C)ccc21` the figure was 21.6%; with `COC(=O)C1=C(C)N(C2CCCCC2)C(=O)C1`, 15.3%; with `COC(=O)C1=C(C)NC(=O)NC1c1ccco1` (stereo not shown), 1.94%.
Under `CCCCOC(=O)c1ccc(NS(=O)(=O)c2cc(-c3nnnn3CC)ccc2OC)cc1` stands 8.41%; under `CCOC(=O)c1c(-n2c(C)cc(C=C3C(=O)NC(=S)NC3=O)c2C)sc2c1CCCC2`, -2.59%.
Under `O=C(CCSc1nc(-c2ccco2)cc(C(F)(F)F)n1)NCc1ccccn1` stands 3.33%; under `CCN(CC)CCCNc1nc(C)cc(COC)c1C#N`, 0.237%.
On to `CCOc1ccccc1NC=C1C(=O)OC(C)(C)OC1=O`, for which the “hERG current change (%, negative = inhibition) at 1uM” value is on record as 5.29%.
Under `C[N+](C)(C)CCCNC(=O)c1ccc(/C=N/O)nc1.[I-]` stands 14.3%; under `O=C(c1ccc(COc2ccc(Cl)cc2)o1)N1N=C(C(F)F)CC1(O)C(F)F` (stereo not shown), 6.56%; under `Clc1ccc(CN2CCc3c([nH]c4ccccc34)C2)cc1Cl`, 7.42%.
With `COc1cc(C(=O)Nc2nnc(CC(=O)NCc3ccccc3)s2)cc(OC)c1OC` the figure was -1.96%; with `Cn1ncc(Br)c1C(=O)NC12CC3CC(CC(C3)C1)C2`, 5.35%.
With `Cn1cnnc1Sc1ccc(CN2CCN(C3CCCC3)C(CCO)C2)o1` (stereo not shown) the figure was 4.02%; with `Cc1ccc(-n2nnnc2SCC(=O)c2c(N)n(C3CC3)c(=O)[nH]c2=O)cc1C`, -5.73%.
As for `NC(=O)CC(NC(=O)c1ccccc1)c1ccc(NCCc2ccc(F)cc2)c([N+](=O)[O-])c1` (stereo not shown), the “hERG current change (%, negative = inhibition) at 1uM” value was determined as 15.6%.
With `CCN(CC)c1ccc(/C=N/NC(=O)c2cccc(S(=O)(=O)Nc3ccccc3OC)c2)c(O)c1` the figure was 9.51%; with `COc1ccc(-c2cc3nc(C)c(CCC(=O)NC(C)CCc4ccco4)c(C)n3n2)c(OC)c1` (stereo not shown), -2.43%; with `Cc1cc(OCC(=O)NC(Cc2ccc(Cl)cc2)C(=O)O)c2c(C)c(C)c(=O)oc2c1` (stereo not shown), 5.22%.
Under `CN(Cc1c(C(=O)N/N=C/c2cccc(F)c2)nnn1-c1nonc1N)c1ccccc1` stands 12.8%; under `COc1ccc(C(=O)Nc2c3c(nn2-c2ccc([N+](=O)[O-])cc2)CS(=O)(=O)C3)cc1`, -6.55%.
Under `COc1ccc(-c2nnn(Cc3nn[nH]n3)n2)cc1OC` stands -0.517%; under `COc1ccc(CN2CCN(S(=O)(=O)c3ccc(NC(C)=O)cc3)CC2)c(OC)c1OC.O=C(O)C(=O)O`, 12.1%; under `CCC(CC)c1nnc(NC(=O)c2ccc3ccccc3n2)s1`, -1.48%.
For the compound `CCOc1ccccc1NC(=O)Nc1cc(OC)ccc1OC`, the “hERG current change (%, negative = inhibition) at 1uM” value came to 15.9%.
Under `CCC(C(=O)OCC(=O)Nc1ccc(Cl)c(S(=O)(=O)N(C)C)c1)c1ccccc1` (stereo not shown) stands 7.15%; under `COc1ccc(NC(=O)N(Cc2ccc(C)cc2)Cc2ccccn2)c(OC)c1`, 1.71%; under `Cc1ccc(S(=O)(=O)N[C@H](C(=O)Oc2ccc3c(C(F)(F)F)cc(=O)oc3c2)c2ccccc2)cc1`, 14.4%.
With `CCN(CCCNC(=O)CN1C(=O)COc2ccccc21)c1cccc(C)c1`, the “hERG current change (%, negative = inhibition) at 1uM” value is recorded as 10.4%.
With `CCOC(=O)c1sc2nc(C)nc(NCc3ccccc3)c2c1C` the figure was 16.7%; with `COc1cccc(/C=N/Nc2cc(C)nc(-c3ccccc3O)n2)c1O`, 6.8%.
As for `COc1ccc(OC)c(NC(=S)NCCC(c2ccccc2)c2ccccc2)c1`, the “hERG current change (%, negative = inhibition) at 1uM” value was 12.2%.
Under `COC(=O)[C@H](Cc1ccccc1)NC(=O)[C@@H](N)CC(=O)O` (H-Asp-Phe-OMe) stands 5.12%.
Under `COc1ccc(C(=O)NNC(=O)Nc2ccc(Cl)cc2)cc1` stands 13.5%.
On to `Cc1nc(N)nc(Nc2ccc(Cl)cc2)c1Br`, for which the “hERG current change (%, negative = inhibition) at 1uM” value was determined as 2.27%.
With `CCCCCC(=O)NC(=S)Nc1ccc(N2CCCCC2)c(Cl)c1` the figure was 12%; with `CCOc1cc(/C=N/N=C2/NC(=O)C(CC(=O)O)S2)ccc1OCc1ccccc1Cl` (stereo not shown), 6.44%.
Under `CC1(C2CC(C(F)(F)F)n3nc(C(=O)O)cc3N2)CC1` (stereo not shown) stands 13%; under `COc1cccc(NC(=O)Cn2nnc(-c3ccccc3N)n2)c1`, 1.76%; under `CN1C(=O)Cn2c1nc1ccccc12`, 7.32%.
With `CC(=O)Nc1ccc(S(=O)(=O)N2CCN(S(=O)(=O)c3ccc(NC(C)=O)cc3)CC2)cc1` the figure was 22.6%; with `On1c(-c2ccccc2)nc2ccc(Cl)cc21`, 1.26%.

Values taken from paper PMC4336329 (PLoS ONE, 2015).
